About 500 (0.14%) of roughly 370,000 compounds were called active. This list was built around the results that the source calls inconclusive (neither active nor inactive); the mix of calls is not that of the screen. Calls follow the shape of the dose curve; as a rule, active = well fitted activation curve with a large enough effect; inconclusive = small, poorly fitted or top-dose-only effect; inactive = no such curve, though single readings can be large or run the other way. No potency is given beside an inconclusive call; the fits are too rough.
assay: qHTS of alpha-syn Inhibitors; settings: Yeast expressing alpha-synuclein, BacTiter-Glo, 24 h; Potency: growth rescue unless noted; series mostly up to 46.1 µM; also: nearly all actives have a fitted effect of over 65% in size
In short: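 Readout is rescue of growth in alpha-synuclein-expressing yeast, so inhibitors of toxicity appear as activators. Growth after 24 hr at 30 deg C in galactose medium is quantified by luminescence.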
Potency is read from the fitted curve at half-maximal effect; tags tell the direction and shape of the fitted curve.

Structure (SMILES) | Potency
COc1ccccc1COC(=O)C(NC(=O)c1ccc(C)cc1)C(C)C (configuration not stated) | inconclusive [activator, single point]
Cc1nn(-c2ccc(F)cc2)c(-n2cccc2)c1C(=O)NCCCN1CCN(c2ccccc2F)CC1 | inconclusive [activator, single point]
COc1ccc(S(=O)(=O)c2cnc3ccc(OC)cc3c2N2CCC3(CC2)OCCO3)cc1 | inconclusive [activator, single point]
COc1cc(/C=C(\C#N)C(=O)Nc2ccc(C(=O)O)cc2)ccc1OC(=O)c1cccc(F)c1 | inconclusive [activator, single point]
Clc1ccc(SCc2csc(N3CCOCC3)n2)cc1 | inactive
COc1ccc(C(=O)NC(=S)NNC(=O)c2cnccn2)cc1 | inconclusive [activator, partial curve, poor fit]
COc1ccc(C/C(C)=N/NC(=S)Nc2ccccc2)cc1 | inconclusive [activator, single point]
O=C(Nc1ccc(Cl)c(Cl)c1)c1cccnc1 | inactive
Cc1c(C(=O)N(CCC#N)c2ccccc2)sc2nc3n(c(=O)c12)CCCC3 | inconclusive [activator, single point]
Cc1ccc(NC(=O)Cn2nnc(-c3ccccc3NC(=O)c3cccs3)n2)cc1 | inconclusive [activator, single point]
CNc1c(Br)cc(C(O)C2=CCc3ccccc32)cc1Br (configuration not stated) | inconclusive [activator, single point]
CCOc1ccc(/C=N/NC(=O)Cc2csc(Nc3cccc(C(F)(F)F)c3)n2)cc1 | inconclusive [activator, partial curve]
Cc1ccc(NC(=O)CC2SC(=O)N(c3ccccc3)C2=O)cc1 (configuration not stated) | inactive
C[C@@H]1CN([C@H](C)CO)C(=O)CCCn2nncc2CO[C@@H]1CN(C)C(=O)C1CC1 | inconclusive [activator, single point]
CCCCN(CC)S(=O)(=O)c1ccc(C(=O)Nc2nnc(CSC)o2)cc1 | active: 31.6 µM
Cc1ccc(-n2c(C)cc3c2CCCC3=O)cc1 | inconclusive [activator, single point]
O=[N+]([O-])c1cc(F)c2cccnc2c1O | inconclusive [activator, single point]
CSc1nc(N2CCOCC2)c2c3c(sc2n1)CCCC3 | inactive
COc1cccc(-c2ccc(C#N)c(OC(=O)c3ccc(Cl)cc3)n2)c1 | inactive
Fc1cccc(NCc2cccn2-c2nnc(N3CCOCC3)s2)c1 | active: 22.4 µM
COc1ccc(S(=O)(=O)Nc2ccc3c(c2)CCC3)cc1 | inconclusive [activator, partial curve]
O=C(CN1CCOCC1)N/N=C/c1ccc(-c2cccc(Cl)c2Cl)o1 | inconclusive [activator, single point]
CCC1(C)NC(=O)N(CC(=O)N2CCN(c3cccc(Cl)c3)CC2)C1=O (configuration not stated) | inconclusive [activator, single point]

Structure (SMILES) | Potency
Oc1c(Cl)cc(CN2CCOCC2)c2cccnc12 | inconclusive [activator, single point]
Cn1c(=O)n(Cc2ccco2)c(=N)c2c3c(sc21)CCCC3 | inconclusive [activator, single point]
Oc1c(Br)cc(Br)cc1CNc1cccc2cccnc12 | inconclusive [activator, single point]
CCOC(=O)c1nc(N2CCN(C(=O)OCC)CC2)c2c3c(sc2n1)CCCC3 | active: 15.8 µM
FC(F)(F)c1cnc(NNC(=S)Nc2ccccc2Cl)c(Cl)c1 | inconclusive [activator, single point]
COC(=O)c1cccc(F)c1C(=O)c1cccc2ccccc12 | inconclusive [activator, single point]
CC(C)Nc1nc(NCCOc2ccccc2)c2sccc2n1 | inconclusive [activator, single point]
Nc1ncnc2c1ncn2C1CCCC1 | inactive
CC1(C(=O)NC2CCCC2)CCN1C(=O)Cc1ccc(-c2ccccc2)cc1 (configuration not stated) | inconclusive [activator, single point]
CCOc1cc(C2Nc3ccccc3C(=O)N2Cc2ccco2)ccc1O (configuration not stated) | inactive
COC(=O)C1=C(C)N(Cc2ccccc2)C(=S)N[C@H]1c1ccc(Br)cc1 | inactive
O=S(=O)(NCCOCC(F)(F)C(F)F)c1ccc2oc3ccccc3c2c1 | inconclusive [activator, single point]
CSc1nc(N(C)NC(=O)c2ccccc2)c2ccccc2n1 | inconclusive [activator, single point]
CCCCn1c(=O)c(C(=O)OCC)c(O)c2ccccc21 | inactive
O=C(CSc1nnc(-c2cccs2)n1-c1ccccc1)Nc1ccccc1 | inactive
Cc1ccc(-c2ccc(=O)n(CC(=O)N3CCN(c4cccc(C)c4)C(C)C3)n2)cc1 (configuration not stated) | inconclusive [activator, partial curve]
COc1ccccc1-c1nnc(SCC(=O)NC2CCCCC2)o1 | inconclusive [activator, single point]
CCN1CCN(C(=O)C2CCN(Cc3nc(-c4cccc(Cl)c4)oc3C)CC2)CC1 | inconclusive [activator, single point]
CC(C)C[C@@H](CO)NS(=O)(=O)c1c(F)cccc1F | inconclusive [activator, single point]
O=[N+]([O-])c1ccccc1S(=O)(=O)N1CCCc2ccccc21 | inconclusive [activator, single point]
CCOc1ccc(C(=O)N/N=C/c2cccc3cccnc23)cc1 | inconclusive [activator, single point]
COc1ccc(NC(=S)N(CCC(C)C)C2CCN(C(C)C)CC2)cc1Cl | inconclusive [activator, single point]
O=C(CN1c2cccc3cccc(c23)S1(=O)=O)NCc1ccc(Cl)cc1 | inconclusive [activator, single point]

Structure (SMILES) | Potency
NC(=O)C1CCN(CCC(=O)Nc2ccc3c(c2)CCC3)CC1 | inconclusive [activator, single point]
Cc1cc(C)n(CC(O)CN2c3ccccc3Sc3ccccc32)n1 (configuration not stated) | inconclusive [activator, single point]
Fc1ccc(CSc2ncnc3nc[nH]c23)cc1 | inactive
COc1cccc(-n2c(SCc3ccccc3C)nc3c([nH]c4ccccc43)c2=O)c1 | inconclusive [activator, single point]
COc1ccc(C(=O)OCC(=O)NCC2CCCCC2)cc1S(=O)(=O)N1CCCc2ccccc21 | inconclusive [activator, single point]
COCCNC(=O)C1CC(c2ccc([N+](=O)[O-])cc2)=NO1 (configuration not stated) | inconclusive [activator, single point]
CCCC(=O)NC(c1ccc(OC)cc1)c1ccc2cccnc2c1O (configuration not stated) | inconclusive [activator, single point]
Cc1ccc(S(=O)(=O)N2C[C@@H](C)[C@]3(C2)[C@H](O)[C@H](OC(=O)NCc2ccco2)C[C@H]2C(=O)N(c4ccccc4)C(=O)[C@H]23)cc1 | inconclusive [activator, single point]
CN(C)c1cccc(C(=O)N(Cc2ccccc2)Cc2ccccc2)c1 | inconclusive [activator, single point]
COc1ccc(-c2cc(=O)oc3cc(OC(C)C(=O)NCC4CCC(C(=O)O)CC4)ccc23)cc1 (configuration not stated) | inconclusive [activator, single point]
O=C(NC1CCSc2ccccc21)c1cccc(Cl)c1 (configuration not stated) | inactive
Cc1noc(C)c1NC(=O)N(C)C[C@@H]1Oc2c(NC(=O)NC(C)C)cccc2C(=O)N([C@@H](C)CO)C[C@@H]1C | inactive
Cc1cc(=O)oc2c(C)c(OCC(=O)NC3CCN(Cc4ccccc4)CC3)ccc12 | inconclusive [activator, single point]
Cc1ccc(C(C[N+](=O)[O-])c2c(N)n(C)c(=O)n(C)c2=O)cc1 (configuration not stated) | inconclusive [activator, single point]
COc1cc(-c2nnc(SCc3c(F)cccc3Cl)o2)cc(OC)c1OC | inactive
CCN1C(=O)[C@H]2[C@@H](c3ccc(-c4ccc(C(C)=O)cc4)c(OC)c3)N3CCCC[C@@]3(C(=O)OC)[C@H]2C1=O | inconclusive [activator, single point]
COc1ccc(N(C)S(=O)(=O)c2cccc(C(=O)Nc3ccc4c(c3)OCCO4)c2)cc1 | inconclusive [activator, single point]
CCc1cccc(NC(=O)C(NC(=O)C2CCCCC2)C(C)C)c1 (configuration not stated) | inconclusive [activator, single point]
Cc1ccc(-c2nc3cccnc3s2)cc1NS(=O)(=O)c1ccc2c(c1)OCCO2 | inactive
Cc1cc2nn(-c3ccc(F)cc3)nc2cc1NC(=O)c1cccc2ccccc12 | inconclusive [activator, single point]
CCOC(=O)c1cnn(-c2nc(SC)nc3sc4c(c23)CCCC4)c1N | inconclusive [activator, single point]
